Patent US20250163127A1 (published 2025)

Assays:
PD-1 = PD-1 (human, UniProt Q15116); experiment: cell-based or functional assay
human CD80 = molecular target: T1, human CD80 (human); experiment: cell-based or functional assay
T1 chain: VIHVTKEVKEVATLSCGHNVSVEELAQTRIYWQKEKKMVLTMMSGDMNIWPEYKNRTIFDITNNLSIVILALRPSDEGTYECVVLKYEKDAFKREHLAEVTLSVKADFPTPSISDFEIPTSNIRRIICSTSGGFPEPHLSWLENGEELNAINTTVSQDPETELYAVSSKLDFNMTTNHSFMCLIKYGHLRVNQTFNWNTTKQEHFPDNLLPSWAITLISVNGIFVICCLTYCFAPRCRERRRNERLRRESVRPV

B1: PD-L1 303-CTLA-4 2655-Fc (Fc fusion)
chain: FTVTVPKDLYVVEYGSNMTIECKFPVEKQLDLAALIVYWEMEGKDIIQFVHGEEDQKAQHSSYRQRARLLKDQLSLGNAALQITDVKLQDAGVYRCMISYGGGADYKRITVKVNAGSGGSGGGGSGGGG[about 120 residues left out here][about 250 residues left out here]
% CD25 Hi FoxP3 + (PD-1): 30.3 % at 100 nM | % CD25 Hi FoxP3 + (human CD80): 30.3 % at 100 nM
